These results are taken from publication PMC8574189.

The target in the experiment is T1, neutravidin tetramer, P02701.
T1 chain: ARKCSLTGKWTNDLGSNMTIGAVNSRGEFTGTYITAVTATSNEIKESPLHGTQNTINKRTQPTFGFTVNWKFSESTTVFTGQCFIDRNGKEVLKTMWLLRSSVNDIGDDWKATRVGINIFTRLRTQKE
Briefly: native MS; nanoelectrospray, 200 mM ammonium acetate, or charge-reduced in 160 mM ammonium acetate with 40 mM TEAA or EDDA; 5–10 μM protein complex; cyclic IMS (cIMS) and Synapt G2; TRAP with 14 equivalents of trp. The following applies: remark: other sources report otherwise.

B1: neutravidin tetramer, P02701 25-152 (natural protein)
chain: T1 chain
As for B1, the stoichiometry N is 4.

The stoichiometry N is a count of units in the complex or per binding partner.
